Data from EP0131315A2, “Nasal preparations comprising anticholinergic quaternary ammonium salts” (ISTITUTO DE ANGELI S.p.A., priority 1983, dated 1985).
Where “and” joins values, the source holds several entries; their conditions need not be identical. Equal entries are not always repeated. This continues a long series; more values of the same kind are listed elsewhere.

Test: Urinary excretion (bioavailability) after intravenous, oral and nasal administration in the rat; drug in urine determined by muscarinic receptor binding assay
Assay type: in vivo, male Sprague-Dawley rats
Conditions: 2 mg/rat
Method: As a representative drug of this class of compounds N-cyclopropylmethylscopolamine bromide was employed in the method and in the compositions according to the present invention. The bioavailability of this compound after administration by nasal and oral route has been examined and then compared by the following general method. The investigated drug was administered in equal doses by the nasal, oral and intravenous route. 6, 12 and 24 hours after administration the quantitative excretion into the urine for any of the routes of administration was studied. The total amount of the drug excreted during the investigated time intervals was expressed as percentage of the intravenously eliminated amount, considering the latter value as an equivalent for 100% bioavailability.
In detail the following studies have been carried out. For each experiment 10 male Sprague-Dawley rats, weighing 280+ 20g have been used. For the i.v. administration rats fasted for 18 hours were anaesthetized by intraperitoneal sodium pentobarbital solution 2 ml/kg corresponding to 60 mg/kg/rat. A 4% solution of the drug in buffered saline (pH=7.4) was injected into the femoral vein ([…] corresponding to 2 mg of the active ingredient). For the oral administration 18 hours fasted and conscious rats received an 0.2% solution of the drug in saline by means of a stomach tube (1 ml/rat corresponding to 2 mg of the active principle). For the nasal administration the investigated compounds, for example N-cyclopropylmethyl scopolamine bromide, was administered to 18 hours fasted and as above described anaesthetized rats at a dose of 2 mg/rat.
This dose corresponds either to 25µl of saline (4% solution) or 5 mg of a 20% gel introduced into both nasal cavities by means of micropipette. After the administration by any route the animals were transfered into metabolic cages and received 3 ml of water by stomach tube. The urine was collected 6,12 and 24 hours after administration and the excreted drug was determined with the following original method which is based on the binding affinity of the drugs to their pharmacological receptors. […] It follows from this that knowing the affinity of the drugs it is possible to assay the concentration of the drugs in biological fluids. For this a suitable in vitro receptor preparation and a radio ligand that can bind specifically to the receptor and can be displaced by the test compound is needed. In the present invention tritiated N-methyl- scopolamine (^3H-NMS) in a final concentration of 3.10^-10M that occupies 50% of the muscarinic receptors was employed. As in vitro receptor preparation we used a homogenate from rat cerebral cortex diluted 1:3000 in 20 mM HEPES, 100 mM NaCl and 10 mM MgCl2 (pH 7.4). After incubation of ^3H-NMS with the receptor preparation receptor bound ligand was separated from free ligand by centrifugation and the amountof the receptor bound ligand was measured as radioactivity (dpm) in the pellet.

C[N+]1(CC2CC2)C2CC(OC(=O)C(CO)c3ccccc3)CC1C1OC12 (centres unmarked) [N-cyclopropylmethylscopolamine bromide]
amount of the compound found in the urine (intravenous, hours 0-6, mean of 10 rats, 360 min): 23.34 percentage of the total administered dose | amount of the compound found in the urine (intravenous, hours 0-24, mean of 10 rats, 1440 min): 26.52 percentage of the total administered dose | amount of the compound found in the urine (intravenous, hours 6-12, mean of 10 rats, 720 min): 2.24 percentage of the total administered dose | amount of the compound found in the urine (intravenous, hours 12-24, mean of 10 rats, 1440 min): 0.94 percentage of the total administered dose | amount of the compound found in the urine (nasal, gel, hours 0-6, individual rats, 360 min): 1.08 percentage of the total administered dose and 2.31 percentage of the total administered dose and 2.20 percentage of the total administered dose | amount of the compound found in the urine (nasal, gel, hours 0-6, mean of 10 rats, 360 min): 2.39 percentage of the total administered dose | amount of the compound found in the urine (nasal, gel, hours 0-24, individual rats, 1440 min): 3.05 percentage of the total administered dose and 2.82 percentage of the total administered dose and 6.86 percentage of the total administered dose and 5.59 percentage of the total administered dose | amount of the compound found in the urine (nasal, gel, hours 0-24, mean of 10 rats, 1440 min): 6.06 percentage of the total administered dose | amount of the compound found in the urine (nasal, gel, hours 6-12, individual rats, 720 min): 1.00 percentage of the total administered dose and 2.18 percentage of the total administered dose and 2.35 percentage of the total administered dose | amount of the compound found in the urine (nasal, gel, hours 6-12, mean of 10 rats, 720 min): 2.36 percentage of the total administered dose | amount of the compound found in the urine (nasal, gel, hours 12-24, individual rats, 1440 min): 0.05 percentage of the total administered dose and 0.74 percentage of the total administered dose and 2.37 percentage of the total administered dose and 1.04 percentage of the total administered dose | amount of the compound found in the urine (nasal, gel, hours 12-24, mean of 10 rats, 1440 min): 1.31 percentage of the total administered dose | amount of the compound found in the urine (nasal, solution, hours 0-6, mean of 10 rats, 360 min): 5.63 percentage of the total administered dose | amount of the compound found in the urine (nasal, solution, hours 0-24, mean of 10 rats, 1440 min): 6.10 percentage of the total administered dose | amount of the compound found in the urine (nasal, solution, hours 6-12, mean of 10 rats, 720 min): 0.38 percentage of the total administered dose | amount of the compound found in the urine (nasal, solution, hours 12-24, mean of 10 rats, 1440 min): 0.09 percentage of the total administered dose | amount of the compound found in the urine (oral, hours 0-6, mean of 10 rats, 360 min): 0.27 percentage of the total administered dose | amount of the compound found in the urine (oral, hours 0-24, mean of 10 rats, 1440 min): 0.37 percentage of the total administered dose | amount of the compound found in the urine (oral, hours 6-12, mean of 10 rats, 720 min): 0.08 percentage of the total administered dose | amount of the compound found in the urine (oral, hours 12-24, mean of 10 rats, 1440 min): 0.02 percentage of the total administered dose
